# Source: the supplement of paper PMC3334620
# The full ranking holds about 33,000 sequences; the median of “E-score (-0.5 to 0.5)” is about -0.054, and the highest 2% start at about 0.39. The list shows a part of the results.
# Target: Ylr278c (UniProt Q05854)
# Assay: PBM E-score (8-mer binding enrichment) (E-score (-0.5 to 0.5)); higher = stronger / more preferred TF binding; most listed sequences are background and not binding sites
# Settings: protein concentration: 200 nM; construct: GST-DNA-binding domain
# Outline: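 Universal all-10-mer Agilent arrays, fresh or stripped once, were converted to double-stranded form by primer extension. GST-tagged yeast transcription factors from PURExpress in vitro transcription/translation, full-length or DNA-binding domain only, were applied at about 100-200 nM and detected with fluorescent anti-GST. After masliner normalisation, the Universal PBM Analysis Suite scored each ungapped eight-base word together with its reverse complement by E-score.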
row,Sequence,PBM E-score
1,ACCGTGGC,-0.184
2,ATGATGAC,-0.104
3,AATCAAAG,-0.158
4,CTCAGCAA,-0.164
5,AACACATG,-0.246
6,CAGGGCTA,-0.231
7,AGTCTATA,-0.284
8,AATTAAAG,-0.0487
9,GACGGCGA,0.111
10,ACATTCCG,0.332
11,AACGAAGT,-0.347
12,AAGCGAAA,-0.0249
13,AGAACGCG,0.186
14,CCAGGAAA,-0.12
15,CGCGCGAA,0.145
16,ACCATCTG,-0.1
17,CCTTCCTA,-0.338
18,CCACTGTC,-0.271
19,AGTTAAAG,-0.276
20,CGCTTCTA,-0.0149
21,TGCTAGCA,0.0239
22,GCACACTA,-0.103
23,GCGTTTAA,-0.0621
24,CCGCCTTC,0.204
25,AAGTGCGA,0.0887

row,Sequence,PBM E-score
1,CCCGAAGG,0.177
2,ATGACTAC,-0.172
3,CTAAGCGA,-0.114
4,CCAGTAAG,-0.207
5,GCTCCTAC,0.00447
6,GCGCAGCA,-0.0173
7,CATGTCGC,-0.0755
8,AGCTAGGC,0.0766
9,ACGTCCCA,-0.218
10,ACTGCGAA,-0.0798
11,AGGGTAGA,-0.235
12,GGTACGGA,0.263
13,AGCCCCCG,0.157
14,ACAAGATA,-0.123
15,CGCCAACG,0.0307
16,GGACGGAA,0.337
17,GCAGCGAC,-0.0931
18,GGTTGCCA,0.138
19,ACTGGCGC,-0.0605
20,CCCTTCTA,-0.199
21,GGCACAGA,0.101
22,AGCCGCCT,0.0327
23,CGCGGACG,0.326
24,ACTCTGAT,0.0218
25,ACGCTTTG,-0.0892

row,Sequence,PBM E-score
1,GCTATCCC,0.0437
2,CAGCCTAG,-0.25
3,AAGCAAAT,-0.19
4,ATCACGAG,-0.136
5,AGGACCAG,-0.0204
6,AGCGTAAG,-0.00325
7,ATTGAACG,-0.114
8,ATCGTTGC,-0.191
9,CTGGTAAA,-0.036
10,CCACCTCG,-0.00294
11,ACTGCCTA,-0.365
12,AAAAGTAA,-0.0401
13,CCGAAAGG,0.314
14,CACGACGG,0.204
15,CGATAGCC,0.127
16,AGGTGAAT,0.152
17,ACATCCAG,-0.317
18,TGTATGAA,0.0329
19,AACTTCAT,-0.114
20,GGGATTCA,0.0886
21,CCTGTTCG,0.0051
22,CTCGTATA,-0.14
23,AGAGAAAC,-0.148
24,CCAATGCA,-0.14
25,GTAAACGA,-0.0798

row,Sequence,PBM E-score
1,AACCGGCC,0.275
2,GTGACTGA,-0.222
3,GCGAGAAA,0.123
4,CTGGGGCA,-0.25
5,TAACGTCA,-0.26
6,AGAACCCC,0.191
7,AAGGCGCA,-0.042
8,CAATGAGG,-0.263
9,AGTGCTAT,-0.239
10,CAATAGGC,0.0723
11,CTGTATGC,-0.106
12,GAAAGATC,0.0432
13,GGGGGGAA,-0.0902
14,GAGGGGCA,-0.204
15,GGAAGGTA,0.00123
16,GAGTAACC,0.119
17,ACCCTTTC,-0.115
18,ACAGACGC,-0.0922
19,GAACGTGA,0.0532
20,GCCTCGTA,-0.116
21,CACCTGCA,-0.17
22,GTAGCCGA,-0.0602
23,CATGCTAA,-0.33
24,GACGCTCC,0.208
25,CGTCGGAG,0.441

row,Sequence,PBM E-score
1,GGGCGCCC,0.267
2,CACGTCTC,0.0617
3,ATAAACCG,0.189
4,CTAATGCA,-0.096
5,GCCTGAAA,0.0892
6,GCGCACCC,0.117
7,ACACACGG,0.254
8,AACCGACC,0.0753
9,ATGCTGAG,-0.171
10,CAACGCAG,-0.139
11,GAATAACC,0.018
12,AATAAGCC,0.00863
13,ACTGGTCT,-0.161
14,CGCAGTTA,0.2
15,CCGCCTGA,0.241
16,ATGAGCAT,-0.117
17,CAGGTTTA,0.105
18,ATGAGAAA,-0.118
19,TAAGACGA,-0.289
20,AGCGATGA,0.0555
21,ACTAGACT,-0.254
22,AGTGTCAA,-0.143
23,CAGATATC,-0.00483
24,ACGGTGCC,0.111
25,ACAAAGTC,0.0527

row,Sequence,PBM E-score
1,CCGCTGAC,0.192
2,AGTGAAAA,0.114
3,ACCTAGGT,-0.257
4,CCCGCACG,0.225
5,GAATCACC,-0.123
6,GTATCGCA,-0.0427
7,CGGGACCG,0.339
8,TCAATCGA,-0.136
9,ATCCCAAA,-0.0503
10,CAGAGTGG,-0.286
11,AGAAACAG,-0.123
12,AGACGCCT,-0.27
13,GATTACCA,-0.0593
14,CATTAGGG,-0.263
15,AAAGTAGT,-0.295
16,ACGTAGTG,-0.115
17,ACATCACA,-0.0756
18,GCGTCAGA,-0.179
19,GCCGATTA,0.224
20,AACTACTA,0.116
21,CCAGGCCC,-0.117
22,ATTGCCCC,-0.0217
23,CCTACTAC,-0.0594
24,GGCCTACC,0.0107
25,TAACTGGA,-0.131

row,Sequence,PBM E-score
1,GCCGTGCA,0.0166
2,CCTCGTAC,0.0935
3,AACTTTTA,-0.11
4,ATGAGTAC,-0.176
5,CCTAGGTC,-0.214
6,CTGTCAAG,-0.178
7,GCTTTACC,0.0949
8,CCTCAAAA,-0.00965
9,CTGACAAG,-0.153
10,GGAACCCC,0.259
11,AAGACGCC,0.024
12,CTAATATA,-0.212
13,AGGCCAGG,-0.0812
14,ATCAAAAG,0.0443
15,AGTAAGCC,0.00509
16,AAGGTCTG,-0.128
17,ATTTCGCA,0.151
18,CCAATTCG,-0.107
19,CGTAAGTA,0.102
20,AGATAAGC,-0.209
21,CCCAAAGG,-0.115
22,CTCACATC,-0.188
